# Experimental data as given in the supplement of paper PMC4967469.
# A lower IC50 marks a more sensitive line; fits outside the tested doses are given as limits. AUC is the area under the same curve over the 256-fold range up to the top dose, as a fraction; it is 1 without any effect and falls as sensitivity rises. Any top dose called inferred was calculated from the reported fits.
# Compound: N.N.[Cl][Pt][Cl] [Cisplatin]
# Assay: Viability of human cancer cell lines after 72 h of drug (GDSC screen)
# Details: top dose inferred
# Experimental: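 Human cancer cell lines in 384-well plates, medium with 10% serum, drug for 72 h over a 256-fold dose range (nine 2-fold or five 4-fold steps up to the top dose). Adherent lines were fixed and stained with the nucleic acid dye Syto60, suspension lines read with resazurin; signal relative to control wells, capped at 0 and 100%. One two-parameter sigmoid per drug and line, fitted in a mixed model over all curves with the slope shared within a line.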
Cell Line,AUC,IC50 [µM]
"NCI-H596 (lung adenocarcinoma, adherent, top dose 10 µM)",0.974,> 10
"NCI-H630 (large intestine, adherent, top dose 10 µM)",0.982,> 10
"NCI-H647 (non-small cell lung carcinoma, adherent, top dose 10 µM)",0.891,> 10
"NCI-H650 (lung adenocarcinoma, adherent, top dose 10 µM)",0.904,> 10
"NCI-H661 (large cell lung carcinoma, adherent, top dose 10 µM)",0.839,8.95
"NCI-H716 (large intestine, suspension, top dose 10 µM)",0.951,> 10
"NCI-H720 (lung carcinoid, suspension, top dose 10 µM)",0.975,> 10
"NCI-H747 (large intestine, adherent, top dose 10 µM)",0.982,> 10
"NCI-H810 (large cell lung carcinoma, adherent, top dose 10 µM)",0.964,> 10
"NCI-H835 (lung carcinoid, suspension, top dose 10 µM)",0.981,> 10
"NCI-H838 (lung adenocarcinoma, adherent, top dose 10 µM)",0.909,> 10
"NCI-H841 (small cell lung carcinoma, adherent, top dose 10 µM)",0.891,> 10
"NCI-H847 (small cell lung carcinoma, adherent, top dose 10 µM)",0.993,> 10
"NCI-H929 (myeloma, suspension, top dose 10 µM)",0.932,> 10
"NCI-H1048 (small cell lung carcinoma, adherent, top dose 10 µM)",0.896,> 10
"NCI-H1092 (small cell lung carcinoma, suspension, top dose 10 µM)",0.989,> 10
"NCI-H1105 (small cell lung carcinoma, suspension, top dose 10 µM)",0.809,4.12
"NCI-H1155 (large cell lung carcinoma, suspension, top dose 10 µM)",0.871,6.66
"NCI-H1304 (small cell lung carcinoma, suspension, top dose 10 µM)",0.962,> 10
"NCI-H1341 (small cell lung carcinoma, suspension, top dose 10 µM)",0.844,5.65
"NCI-H1395 (lung adenocarcinoma, adherent, top dose 10 µM)",0.921,> 10
"NCI-H1417 (small cell lung carcinoma, suspension, top dose 6 µM)",0.722,1.82
"NCI-H1435 (lung adenocarcinoma, semi-adherent, top dose 10 µM)",0.993,> 10
"NCI-H1436 (small cell lung carcinoma, suspension, top dose 6 µM)",0.985,> 6
"NCI-H1437 (lung adenocarcinoma, adherent, top dose 10 µM)",0.905,> 10

Cell Line,AUC,IC50 [µM]
"NCI-H1563 (lung adenocarcinoma, adherent, top dose 10 µM)",0.921,> 10
"NCI-H1568 (lung adenocarcinoma, adherent, top dose 10 µM)",0.956,> 10
"NCI-H1581 (large cell lung carcinoma, semi-adherent, top dose 10 µM)",0.866,7.75
"NCI-H1623 (lung adenocarcinoma, adherent, top dose 10 µM)",0.945,> 10
"NCI-H1648 (lung adenocarcinoma, adherent, top dose 10 µM)",0.933,> 10
"NCI-H1651 (lung adenocarcinoma, adherent, top dose 10 µM)",0.842,7.86
"NCI-H1666 (lung adenocarcinoma, semi-adherent, top dose 10 µM)",0.92,> 10
"NCI-H1688 (small cell lung carcinoma, adherent, top dose 10 µM)",0.921,> 10
"NCI-H1693 (lung adenocarcinoma, adherent, top dose 10 µM)",0.926,> 10
"NCI-H1694 (small cell lung carcinoma, suspension, top dose 10 µM)",0.879,> 10
"NCI-H1703 (lung adenocarcinoma, adherent, top dose 10 µM)",0.944,> 10
"NCI-H1734 (lung adenocarcinoma, adherent, top dose 10 µM)",0.838,7.74
"NCI-H1755 (lung adenocarcinoma, adherent, top dose 10 µM)",0.964,> 10
"NCI-H1770 (non-small cell lung carcinoma, suspension, top dose 10 µM)",0.99,> 10
"NCI-H1781 (lung adenocarcinoma, adherent, top dose 10 µM)",0.805,5.05
"NCI-H1792 (lung adenocarcinoma, adherent, top dose 10 µM)",0.902,> 10
"NCI-H1836 (small cell lung carcinoma, suspension, top dose 10 µM)",0.983,> 10
"NCI-H1838 (lung adenocarcinoma, adherent, top dose 10 µM)",0.982,> 10
"NCI-H1869 (lung squamous cell carcinoma, adherent, top dose 10 µM)",0.955,> 10
"NCI-H1876 (small cell lung carcinoma, adherent, top dose 10 µM)",0.574,0.999
"NCI-H1944 (lung adenocarcinoma, adherent, top dose 10 µM)",0.89,> 10
"NCI-H1963 (small cell lung carcinoma, suspension, top dose 10 µM)",0.961,> 10
"NCI-H1975 (lung adenocarcinoma, adherent, top dose 10 µM)",0.935,> 10
"NCI-H1993 (lung adenocarcinoma, adherent, top dose 10 µM)",0.982,> 10
"NCI-H2009 (lung adenocarcinoma, adherent, top dose 10 µM)",0.953,> 10

Cell Line,AUC,IC50 [µM]
"NCI-H2023 (lung adenocarcinoma, adherent, top dose 10 µM)",0.809,6.88
"NCI-H2029 (small cell lung carcinoma, adherent, top dose 10 µM)",0.992,> 10
"NCI-H2052 (mesothelioma, adherent, top dose 10 µM)",0.963,> 10
"NCI-H2081 (small cell lung carcinoma, suspension, top dose 6 µM)",0.913,> 6
"NCI-H2087 (lung adenocarcinoma, semi-adherent, top dose 10 µM)",0.899,> 10
"NCI-H2110 (non-small cell lung carcinoma, adherent, top dose 10 µM)",0.835,6.78
"NCI-H2122 (lung adenocarcinoma, adherent, top dose 10 µM)",0.898,> 10
"NCI-H2135 (non-small cell lung carcinoma, adherent, top dose 10 µM)",0.986,> 10
"NCI-H2141 (small cell lung carcinoma, suspension, top dose 10 µM)",0.968,> 10
"NCI-H2172 (non-small cell lung carcinoma, adherent, top dose 10 µM)",0.95,> 10
"NCI-H2227 (small cell lung carcinoma, semi-adherent, top dose 10 µM)",0.887,> 10
"NCI-H2291 (lung adenocarcinoma, adherent, top dose 10 µM)",0.977,> 10
"NCI-H2342 (lung adenocarcinoma, adherent, top dose 10 µM)",0.939,> 10
"NCI-H2347 (lung adenocarcinoma, adherent, top dose 10 µM)",0.962,> 10
"NCI-H2405 (lung adenocarcinoma, adherent, top dose 10 µM)",0.914,> 10
"NCI-H2444 (non-small cell lung carcinoma, adherent, top dose 10 µM)",0.986,> 10
"NCI-H2452 (mesothelioma, adherent, top dose 10 µM)",0.968,> 10
"NCI-H3122 (lung adenocarcinoma, adherent, top dose 10 µM)",0.943,> 10
"NCI-N87 (stomach, adherent, top dose 10 µM)",0.869,> 10
"NCI-SNU-1 (stomach, suspension, top dose 10 µM)",0.967,> 10
"NCI-SNU-5 (stomach, suspension, top dose 10 µM)",0.881,> 10
"NCI-SNU-16 (stomach, suspension, top dose 10 µM)",0.977,> 10
"NEC8 (testis, adherent, top dose 10 µM)",0.756,2.96
